# Data taken from PubChem BioAssay AID1745853 (National Center for Advancing Translational Sciences (NCATS), 2022).
# The other results are listed elsewhere or left out. Shown are side measurements of this screen, not its main read-out; they come without a call.
# Assays:
# Assay in all cases: Primary Screen for Target Class Profiling of Small Molecule Inhibitors of Methyltransferases
# [1] = molecular target: Glycine N-methyltransferase (Homo sapiens) (UniProt Q14749); conditions: purified enzyme, MTase-Glo SAH luminescence; measured here: GNMT inhibition; at 40 µM; stronger effect = lower value
# How it was run: (§1)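 Each enzyme was assayed with SAM and its substrate. SAH formation detected by MTase-Glo luminescence; single-point 40 uM screen[…].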
# [2] = molecular target: Guanidinoacetate N-methyltransferase (Homo sapiens) (UniProt Q14353); conditions: purified enzyme, MTase-Glo SAH luminescence; measured here: GAMT inhibition; at 40 µM; stronger effect = lower value
# How it was run: as §1
# [3] = molecular target: Histamine N-methyltransferase (Homo sapiens) (UniProt P50135); conditions: purified enzyme, MTase-Glo SAH luminescence; measured here: HNMT inhibition; at 40 µM; stronger effect = lower value
# How it was run: as §1
# [4] = molecular target: Nicotinamide N-methyltransferase (Homo sapiens) (UniProt P40261); conditions: purified enzyme, MTase-Glo SAH luminescence; measured here: NNMT inhibition; at 40 µM; stronger effect = lower value
# How it was run: as §1
# [5] = molecular target: Phenylethanolamine N-methyltransferase (Homo sapiens) (UniProt P11086); conditions: purified enzyme, MTase-Glo SAH luminescence; measured here: PNMT inhibition; at 40 µM; stronger effect = lower value
# How it was run: as §1
# On the % scale 0 is the no-effect control and ±100 the full control effect.
SMILES,"activity change, negative = inhibition [1]","activity change, negative = inhibition [2]","activity change, negative = inhibition [3]","activity change, negative = inhibition [4]","activity change, negative = inhibition [5]"
CCCN1C(=O)c2c(-n3cccc3)c3cc(C)ccc3n2CC1(C)C(=O)NCCC(C)C (stereo not given),-5.48%,2.86%,-0.503%,-21.5%,-2.48%
Cc1ccc(-c2c(C(=O)CCl)n(CCCO)c3ncnc(N)c23)cc1,-31.2%,-32.6%,-5.1%,-42.3%,-16.8%
CCCn1c(=O)c2ccc(C(=O)NC(C)C)cc2n2c(=O)n(CC(=O)Nc3ccccc3CC)nc12,4.48%,0.111%,0.408%,-5.1%,-0.881%
Cn1cc(CN2C[C@H](C(=O)Nc3ccn(C)n3)C[C@@H]2c2cccc(C(F)(F)F)c2)cn1,-1.88%,3.55%,2.99%,-7.03%,17.4%
COc1ccc(NC(=O)N2CCn3cccc3C2C)cc1OC (stereo not given),-13.6%,1.16%,-13.8%,-14.3%,-12.1%
O=C(O)Cc1cccn1-c1ccc(Cl)cc1,-4.55%,-4.29%,-0.602%,-6.37%,-2.08%
CCN(CC)Cc1cnc2c(C(=O)NC3(C(N)=O)CCCC3)cnn2c1,-4.57%,-2.02%,-2.5%,-4.04%,-1.55%
CC1(C)C(=O)N(Cc2ccccc2F)[C@H]2CN(C3CCOCC3)C[C@H]2[S+]1(=O)[O-],0.243%,-1.49%,2.06%,-0.374%,-2.57%
FC(F)(F)c1cccc(C2=NOC3(CCN(Cc4ccccc4)CC3)C2)c1,-7.15%,-6.59%,-9.92%,-18.9%,-8.58%
COc1ccc(CN2CCC([C@@H]3CNC[C@H]3CO)CC2)c(Cl)c1OC,-4.89%,0.321%,-8.8%,0.004%,-1.71%
CC(=O)OC[C@@]12C(=O)C[C@@H](C)[C@]3(C[C@@H](c4ccoc4)OC3=O)[C@H]1CC[C@H](OC(C)=O)[C@]21CO1,-2.39%,3.6%,0.531%,-8.71%,3.29%
CC(C)Cn1c(=O)c2cc(F)ccc2n2c(SCC(=O)Nc3ccc(F)cc3)nnc12,1.61%,0%,4.49%,-4.81%,4.21%
CCCn1c(=O)c2ccc(Cl)cc2n2c(=O)n(CC(=O)Nc3ccc4c(c3)OCCO4)nc12,-4.49%,-6.33%,3.88%,-8.86%,-4.95%
CC(C)Cn1c(=O)c2ccc(C(=O)NC3CCCC3)cc2n2c(SCC(=O)NC(C)(C)C)nnc12,0.75%,3.89%,5.99%,-6.67%,-0.132%
CC(C)Cn1c(=O)c2ccc(C(=O)NC(C)C)cc2n2c(=O)n(Cc3ccc(F)cc3)nc12,1.36%,-1.08%,-1.87%,-2.12%,-3.85%
COC1CN(c2cccc(F)c2)C12CCN(C(=O)CC1CCCCC1)CC2 (stereo not given),-11.1%,-5.32%,-3.8%,-22.9%,-8.16%
Cn1c(=O)c2ccc(C(=O)NC3CCCC3)cc2n2c(=O)n(CC(=O)Nc3ccccc3Cl)nc12,6%,4.97%,5.29%,-1.82%,2.17%
CCc1noc([C@@H]2CC(F)(F)CN2C(=O)CCn2cc(C)cn2)n1,-0.746%,-1.83%,-0.136%,-3.08%,-3.97%
CN1C(=O)c2cc(C(=O)NCc3ccc(F)cc3)nn2CC1(C)C(=O)NCc1ccccc1 (stereo not given),-2.13%,-3.01%,1.1%,-7.14%,-5.63%
CN1CCc2cc(NC(=O)Nc3cccnc3)ccc21,-21.9%,2.49%,-6.18%,-7.41%,-4.48%
COc1cc(Cl)c(NC(=O)CN(C)S(=O)(=O)c2ccc3[nH]c4c(c3c2)CCCC4)c(OC)c1,5.43%,0.623%,3.36%,7.42%,2.54%
CCCn1c(=O)c2ccc(C(=O)NC(C)CC)cc2n2c(SCC(=O)Nc3cc(C)cc(C)c3)nnc12 (stereo not given),3.99%,0%,5.37%,6.6%,4.95%
CC(C)CCn1c(=O)c2ccccc2n2c(=O)n(CC(=O)Nc3cccc(Cl)c3)nc12,0.638%,0%,5.36%,-5.59%,0.829%
COc1cccc(CN2C(=O)c3ccc(-c4ccccc4)n3CC2(C)C(=O)NC2CCCCC2)c1 (stereo not given),5.02%,0.893%,7.14%,0.075%,3.89%
COc1cc(C(=O)N[C@@H]2[C@@H](c3ccccc3)[C@@H](CO)N3CCCC[C@H]23)cc(OC)c1OC,-7.4%,-1.08%,-0.083%,-0.593%,0.774%
CCCn1c(=O)c2ccc(Cl)cc2n2c(=O)n(Cc3c(F)cccc3Cl)nc12,3.5%,0%,10.6%,3.2%,4.08%
CN1C(=O)c2cc(C(=O)NCCCc3ccccc3)nn2CC1(C)C(=O)NCc1ccccc1 (stereo not given),3.99%,4.69%,-1.21%,4.04%,-0.511%
O=S(=O)(Cc1noc([C@@H]2C[C@@H](O)CN2CC2CC2)n1)c1ccc(F)cc1,0.098%,0.634%,2.99%,-5.86%,18%
COc1cc(/C=C(\C#N)C(=O)c2ccc(O)c(O)c2)cc(I)c1O,-55.8%,-5.89%,-15.1%,-17.4%,-6.98%
CC(C(=O)NCc1ccccc1)n1ccc2cc(S(=O)(=O)N3CCCCC3)ccc21 (stereo not given),-1.71%,0.503%,-1.95%,-7.29%,-1.76%
